Drawing on the supplement of paper PMC4967469, this text covers AUC and IC50 for seven cell lines.

Assay in all cases: Viability of human cancer cell lines after 72 h of drug (GDSC screen)
Compound in one test: C=CC(=O)Nc1cc(-n2c(=O)ccc3cnc4ccc(-c5ccc(NS(C)(=O)=O)cc5)cc4c32)ccc1C [BMX-IN-1 (QL-XII-61)]
The settings on record: top dose 10 µM; top dose inferred. On the procedure: (§1)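 Human cancer cell lines in 384-well plates, medium with 10% serum, drug for 72 h over a 256-fold dose range (nine 2-fold or five 4-fold steps up to the top dose). Adherent lines were fixed and stained with the nucleic acid dye Syto60, suspension lines read with resazurin; signal relative to control wells, capped at 0 and 100%. One two-parameter sigmoid per drug and line, fitted in a mixed model over all curves with the slope shared within a line.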

Compound in a further test: C=CCNC1=C2C[C@@H](C)C[C@H](OC)[C@H](O)[C@@H](C)/C=C(\C)[C@H](OC(N)=O)[C@@H](OC)/C=C\C=C(/C)C(=O)NC(=CC1=O)C2=O [17-AAG]
The note with it: top dose 1 µM. On the procedure:
as §1

Compound in another test: CCc1cc(-c2n[nH]c(C)c2-c2ccc3c(c2)OCCO3)c(O)cc1O [CCT018159]
The settings on record: top dose 10 µM; top dose inferred. On the procedure: as §1

Compound in the next test: CN(C)Cc1cccc(N=C(c2ccccc2)c2c(O)[nH]c3cc(C(=O)N(C)C)ccc23)c1 [BIX02189]
The settings on record: top dose 20 µM; top dose inferred. On the procedure:
as §1

Compound in another test: COC(=O)CNC(=O)C(=O)OC [Dimethyloxalylglycine]
The note with it: top dose 4000 µM; top dose inferred. On the procedure:
as §1

Compound in another test: COc1cccc2cc(-c3nc([C@H]4CC[C@H](C(=O)O)CC4)n4ncnc(N)c34)[nH]c12 [OSI-027]
The settings on record: top dose 20 µM. On the procedure:
as §1

Compound in a further test: CS(=O)(=O)c1ccc(C(=O)Nc2ccc(Cl)c(-c3ccccn3)c2)c(Cl)c1 [Vismodegib]
The settings on record: top dose 10 µM; top dose inferred. On the procedure: as §1

Compound in the next test: Cc1cnc(Nc2ccc(F)cc2Cl)nc1-c1c[nH]c(C(=O)N[C@H](CO)c2cccc(Cl)c2)c1 [VX-11e]
The note with it: top dose 5.12 µM; top dose inferred. On the procedure: as §1

Compound in another test: Cc1cnc(Nc2ccc(OCCN3CCCC3)cc2)nc1Nc1cccc(S(=O)(=O)NC(C)(C)C)c1 [TG101348]
The note with it: top dose 10.24 µM. The procedure:
as §1

Compound in a further test: O=C(c1ccc(C(=O)N2CCC(N3CCCC3)CC2)c(Nc2ccccc2)c1)N1CCC(N2CCCC2)CC1 [UNC1215]
The note with it: top dose 1 µM; top dose inferred. On the procedure: as §1

IC50 is the fitted dose that halves viability relative to control wells, and lower means more sensitive; a fit beyond the top or the lowest dose is shown as a bound at that dose. The AUC spans the tested range (256-fold, ending at the top dose) of the same fit; it is 1 without any effect and falls as sensitivity rises. For part of these data: The top dose, if marked as inferred, was derived from the fitted curves, not read from the paper.

One may read the IC50 as the concentration at which inhibition is half-maximal. Consider JIMT-1 (breast, adherent), for which the AUC was found to be 0.911 in the test with BMX-IN-1 (QL-XII-61); 0.483 with 17-AAG; 0.93 in the test with CCT018159; 0.964 with BIX02189; 0.653 with Dimethyloxalylglycine; 0.661 with OSI-027. The AUC is 0.974 with Vismodegib, 0.962 with VX-11e, 0.902 in the test with TG101348 and 0.981 in the test with UNC1215. The IC50 in the test with BMX-IN-1 (QL-XII-61) was above 10 µM; with 17-AAG, 0.0561 µM; with CCT018159, above 10 µM; in the test with BIX02189, above 20 µM; in the test with Dimethyloxalylglycine, 687 µM; with OSI-027, 3.63 µM. Besides, the IC50 in the test with Vismodegib was above 10 µM; in the test with VX-11e, above 5.12 µM; with TG101348, above 10.2 µM; with UNC1215, above 1 µM.
As for HuH-7 (liver, adherent), the AUC in the test with BMX-IN-1 (QL-XII-61) worked out at 0.826; with 17-AAG, 0.939; in the test with CCT018159 it was 0.946; in the test with BIX02189, 0.975; with Dimethyloxalylglycine, 0.308; in the test with OSI-027, 0.473. In addition, the AUC came out at 0.982 with Vismodegib, 0.973 with VX-11e and 0.986 in the test with UNC1215. The IC50 with BMX-IN-1 (QL-XII-61) is 6.04 µM; with 17-AAG, above 1 µM; in the test with CCT018159, above 10 µM; with BIX02189, above 20 µM; with Dimethyloxalylglycine it was 72.4 µM; with OSI-027, 1.06 µM. Besides, the IC50 was above 10 µM with Vismodegib, above 5.12 µM with VX-11e and above 1 µM with UNC1215.
In the case of SW1573 (lung adenocarcinoma, adherent), the AUC in the test with BMX-IN-1 (QL-XII-61) was 0.937; with 17-AAG it was 0.685; with CCT018159 it was 0.939; with BIX02189, 0.974; with Dimethyloxalylglycine it was 0.723; in the test with OSI-027 it was 0.853. The AUC with Vismodegib is 0.961; in the test with VX-11e it was 0.981; in the test with TG101348 it was 0.908; with UNC1215, 0.977. Further, the IC50 with BMX-IN-1 (QL-XII-61) was above 10 µM; with 17-AAG it was 0.249 µM; with CCT018159 it was above 10 µM; with BIX02189 it was above 20 µM; in the test with Dimethyloxalylglycine it was 1360 µM; with OSI-027, above 20 µM. The IC50 with Vismodegib was above 10 µM; with VX-11e, above 5.12 µM; with TG101348, above 10.2 µM; in the test with UNC1215, above 1 µM.
For the cell line MMAC-SF (melanoma, adherent), the AUC with BMX-IN-1 (QL-XII-61) came to 0.829; with 17-AAG it was 0.55; with BIX02189, 0.987; with Dimethyloxalylglycine it was 0.684; with OSI-027, 0.687; with Vismodegib it was 0.96. Further, the AUC with VX-11e is 0.987; in the test with TG101348 it was 0.904; in the test with UNC1215, 0.986. The half-maximal inhibitory concentration (IC50) with BMX-IN-1 (QL-XII-61) was 6.62 µM; in the test with 17-AAG, 0.0863 µM; with BIX02189 it was above 20 µM; with Dimethyloxalylglycine, 837 µM; with OSI-027, 4.29 µM; with Vismodegib, above 10 µM. The IC50 with VX-11e is above 5.12 µM; in the test with TG101348, above 10.2 µM; in the test with UNC1215, above 1 µM.
For the cell line SK-MEL-2 (melanoma, adherent), the AUC in the test with BMX-IN-1 (QL-XII-61) worked out at 0.87; in the test with 17-AAG, 0.594; in the test with CCT018159, 0.906; with BIX02189, 0.987; with Dimethyloxalylglycine, 0.797; with OSI-027, 0.508. For the same cell line, the AUC with Vismodegib is 0.981; with VX-11e it was 0.987; with TG101348, 0.875; with UNC1215 it was 0.986. The IC50 with BMX-IN-1 (QL-XII-61) was 9.94 µM; in the test with 17-AAG, 0.115 µM; in the test with CCT018159, above 10 µM; with BIX02189, above 20 µM; with OSI-027, 1.31 µM; with Vismodegib, above 10 µM. The IC50 in the test with VX-11e was above 5.12 µM; with TG101348 it was above 10.2 µM; with UNC1215, above 1 µM.
For the cell line CHP-212 (neuroblastoma, adherent), the AUC in the test with BMX-IN-1 (QL-XII-61) is 0.973; with 17-AAG it was 0.447; in the test with CCT018159, 0.893; with BIX02189, 0.984; with Dimethyloxalylglycine it was 0.468; with OSI-027 it was 0.867. Further, the AUC in the test with Vismodegib came to 0.972; with VX-11e it was 0.981; in the test with TG101348 it was 0.809; with UNC1215, 0.987. Further, the IC50 was above 10 µM with BMX-IN-1 (QL-XII-61); 0.0452 µM with 17-AAG; above 10 µM in the test with CCT018159; above 20 µM with BIX02189; 205 µM with Dimethyloxalylglycine; 15.7 µM with OSI-027. The IC50 with Vismodegib was above 10 µM; in the test with VX-11e, above 5.12 µM; in the test with TG101348, 4.84 µM; with UNC1215, above 1 µM.
In the case of EKVX (lung adenocarcinoma, adherent), the AUC worked out at 0.965 in the test with BMX-IN-1 (QL-XII-61); 0.821 with 17-AAG; 0.912 with CCT018159; 0.97 in the test with BIX02189; 0.594 with Dimethyloxalylglycine; 0.804 with OSI-027. For the same cell line, the AUC in the test with Vismodegib was 0.962; with VX-11e it was 0.933; in the test with TG101348, 0.884; in the test with UNC1215 it was 0.903. Further, the IC50 in the test with BMX-IN-1 (QL-XII-61) is above 10 µM; in the test with 17-AAG it was above 1 µM; in the test with CCT018159 it was above 10 µM; with BIX02189, above 20 µM; with Dimethyloxalylglycine it was 607 µM; with OSI-027, above 20 µM. The IC50 with Vismodegib was above 10 µM; in the test with VX-11e, above 5.12 µM; with TG101348, above 10.2 µM; with UNC1215, above 1 µM.
